Data taken from patent US20240207396A1 (priority 2021, published 2024).

Tested on: Th17 cells (cytokine IL-17F)
Experiment: Immunological experiment of oligosaccharide vaccine: intracellular IL-17F level of Th17 detected by flow cytometry in immunocompromised (neutropenia) mice
Description: The effectiveness of the vaccine was studied by using an immunocompromised (neutropenia) mouse model. This neutropenia mouse model was considered a suitable model, which can be used for simulating patients developing such deficiency due to treatment of various malignant tumors, chemotherapy and the like. Immune impairment induced by cyclophosphamide injection in mice would increase the sensitivity to fungi, which was similar to the increased susceptibility of neutropenia patients to the disease. To investigate the T cell-mediated immune response, mouse blood was taken and detected for a change in cytokine IL-17F level in Th17 cells to evaluate the immunogenicity of chitosan oligosaccharide-carrier protein vaccine.
6-8-week-old Balb/c female mice were selected, and adaptively fed for 3-7 d. 20 g/L cyclophosphamide was prepared with normal saline, and the cyclophosphamide was injected intraperitoneally by body weight of 200 mg/kg. The number of neutrophils in the mouse blood was measured by a SYSMEX XT-2000i automatic blood analyzer after 3 days. If the number of the neutrophils was <500/mm^3, the experiment could be continued. After that, the cyclophosphamide was injected every 10 days at a dose of 150 mg/kg, which was maintained throughout the test period.
A normal saline blank control group, a KLH group, a chitosan oligosaccharide group, a chitosan oligosaccharide-KLH group in Example 6, a fluconazole group (as a positive control of a challenge test) were set up, with 10 mice in each group. At weeks 0, 2, 4 and 6 at the start of the experiment, the mice were injected subcutaneously from multiple points on the neck and back, with an injection amount of 2.5 mg/kg. The normal saline blank group was injected with normal saline, and the fluconazole group was not injected. The mice were intragastrically administrated by 50 mg/kg d at week 6 for 7 consecutive days. The other groups were injected with tested samples containing adjuvants.
In order to stimulate the organism to produce a strong immune response, Freund's adjuvants were selected. […]

keyhole limpet hemocyanin [KLH]
Proportion of Intracellular IL-17F to Th17, After immunization (after the immunization at week 6, 2.5 mg/kg s.c. at weeks 0, 2, 4, 6 with Freund's adjuvants, x ± s, n = 10): 1.486 ± 0.355%
Proportion of Intracellular IL-17F to Th17, Before immunization (blood lymphocytes before the immunization at week 0, immunocompromised Balb/c mice, x ± s, n = 10): 1.456 ± 0.361%
Change of proportion of intracellular IL-17F to Th17 after immunization compared with before immunization (in words, vs. before immunization): increased, but the effect was not significant
